In the RNAGym collection of RNA variant scans (doi:10.7554/elife.90254):
Read counts are not given, so values of variants with three or more changes are uncertain.

B1: LINE1-mini (parent)
chain: GGCAGAGCUCAACACAGCGUGGCAAAGUGGCUGUGGCUAGACUGCC

Variants of: B1
Assay: self-cleavage, relative activity (ratio to wild type); higher = more cleavage; in vitro, sequencing; the parent is a self-cleaving ribozyme

Variant | self-cleavage
A6G C15U U28A U34C G44U | 0.22
A6G G29C U32C U34C | 0.08
G7A A26U G33A | 0.48
A6U C18A C23U A24C | 0.51
A6U C8U G29U | 0.27
A6U C23G G35A G44U | 0.05
A6U C8U G19U U20A | 0.12
G7A A39C C46A | 0.26
A6G C13G A16C | 0.03
A6G C10A A16U A39C C46A | 0.01
A6U U20C A25C G29U | 0.45
G7A A14U C23U C37G C46U | 0.03
A6U G7U C23G C45G | 0
A6G C10A U20G U28C G36U | 0
G7A A14C C18A C31A C37U | 0.15
A6U G27C A41C | 0.05
A6U G19U C23A | 0.5
A6U A16C C18U U32A | 0.07
A6G U9A G29U U32G | 0.24
A6U C18G G19C C23G A25G | 1.48
A6G C13A G17C C42G | 0.03

Variant | self-cleavage
A6G C8G G17A C23U G30U C37A | 0.11
A6U C13U C15G | 0.02
A6U C18A G21A C46U | 2.8
G7A A14C U34A | 0.04
A6G C23A A41C | 0.33
A6U G27C C31G | 0.05
A6U G7C A12C U20A A41G | 0
G7A A16U C31U | 0.06
A6U G7U C10A G22C C31A U34A C46U | 0.01
A6U G17A G29U G35U | 0.04
A6U G19A U28A | 0.63
A6G G29A G33U C42G | 0.01
A6U A25C A26C | 0.69
A6G G7U U9A A24C C42A | 0.04
A6U C18G U28C C46A | 0.52
A6U A16G A26C | 0.12
A6U C8G G17C G22A A24G A26G G33A C46A | 0.02
A6U C13A G27U A41C | 0.02
A6U A14G A16G | 0.14
A6U C31U U32G C46A | 0.06
A6U A16C G21U C46U | 0.17

Variant | self-cleavage
G7A A26C U43A | 0.07
A6G C18U G33C G36U | 0.01
A6U C18G C37U | 0.06
A6U C10U C18A G44U | 0.07
A6U G33A A39U A41G | 0.04
A6U U20C A24U G35A C45U | 0.1
A6U A26U G27A G40U | 0.04
G7A C8A A12U C37U | 0.01
A6U U9G C10A U38A | 0.01
G7A C8A U9C C23A G40U | 0.05
G7A C8A G21U G30C | 0.32
A6G G21A A41C | 0.22
A6U A39G G44U C45G | 0.08
A6U C13A C23A U38G C46A | 0.02
A6G U9A G30C C37A | 0.04
A6U U9C U34A G40U | 0.03
A6U G21A C42U | 0.45
A6U A14C C31U G33U | 0.01
A6U C18G G30C | 1.2
A6U G7A A11U | 0.03
A6G C10U G35U | 0.05

Variant | self-cleavage
G7A C8A C15G | 0.11
A6U U9A G40A | 0.13
G7A A26G A39U C45A | 0.39
A6G G7U G21A G27U G30A C31A C46G | 0.13
A6G C13G C18U G21A A24U G33A | 0.05
A6U C13U C18U G30U | 0.06
A6U A16C G33U U34C | 0.11
A6G G22A A26G U32C | 0.01
A6G U20C C31U U38C | 0.02
A6U C8G A26U G44U C46U | 0.06
A6U G7C G40U | 0.1
G7A C8A G33A G36U C46U | 0.11
A6G U9A U32C C42G | 0.01
A6G G40U G44C | 0.01
A6U C13G G22A G27C | 0.06
A6U C23U C42G C45A | 0.03
A6G C13A C18G C23U C37G | 0.02
A6U G7C U9G A11U G21A U32G A39G | 0
A6U G7A C37A | 0.09
A6G C18G A39G | 0.03
G7A A12G G40U | 0.09
